# Variants at the floor of the assay are shown more often than the library holds them.
# B1: TPR 5TU (parent)
# chain: GGAUCUUCUCGAUCUAACAAAAAAGACAAAUCUGCCACAAAGCUUGAGAGCAUCUUCGGAUGCAGAGGCGGCAGCCUUCGGUGGCGCGAUAGCGCCAACGUUCUCAACUAUGACACGCAAAACGCGUGCUCCGUUGAAUGGAGUUUAUCAUG
# Variants of: B1
# Assay: polymerase ribozyme fitness, log enrichment relative to wild type (log ratio); higher = more active; in vitro selection for triplet polymerase activity
# Summary of the method: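 Only genotypes with ≥10 input reads and ≥1 read per output were kept after Illumina sequencing of input and output libraries. These libraries were PCR-built, transcribed mutants of each subunit of a heterodimeric triplet polymerase ribozyme, each put through one triplicate in vitro selection round with frozen incubation at −7 °C, gel excision of extended constructs, streptavidin-bead capture and RT-PCR. Fitness is a logarithmic ratio of genotype enrichment to wild-type enrichment, from inverse-variance-weighted replicate averages, with the logarithm in base 2.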
row,Variant,polymerase ribozyme fitness (log ratio)
1,A29U U55A G58U G74U U82A A98C,≤ -4.2
2,C32A A40C G84A,≤ -4.2
3,U31C A47G A52C C69A C85G U101G,≤ -4.2
4,A30U U44A C85A A110C U111C,≤ -4.2
5,U31A U135G G143C,-3.93
6,A30C A39U G59A U82G C87U G117U G140A G143U,≤ -4.2
7,U31A U33A A49C C123U U139C,≤ -4.2
8,A30C C38A C54U A60G G84U G141A G143A,≤ -4.2
9,U31A A60G G83U G86U A115U A137U,≤ -4.2
10,A30U A64G U139G U144A,≤ -4.2
11,U31A A66U A91G,≤ -4.2
12,U31C G86C C93U A98U,-1.96
13,A30G C51A A91U C123U U134G,≤ -4.2
14,A30C G48C C51A U55A G71A A91C,≤ -4.2
15,U31A C57U G70A C87G A98G A113C C116G,≤ -4.2
16,U31C A39C C54U A73G U90G G124A,≤ -4.2
17,A30G A40G G80U A89C A91G G152U,≤ -4.2
18,U31A C38A G50C C85U,≤ -4.2
19,U31C G50C U61A C76A,≤ -4.2
20,U31G G65A,-1.83
21,A30C C72G G86U A106G U144C C149G,≤ -4.2

row,Variant,polymerase ribozyme fitness (log ratio)
1,U31G A40G G83C A142G,≤ -4.2
2,U31C G42U U44C,≤ -4.2
3,C32G A49C,≤ -4.2
4,A30U G59C G140A,≤ -4.2
5,C32G G84U G88A C114A U139A C149A,≤ -4.2
6,U31A U44A G59A C63A C75G C87A C132A,≤ -4.2
7,C32G G68A G81A G86U A115U,≤ -4.2
8,A29U U56A A89G C96A U101G A142U,≤ -4.2
9,U31C C57U G83U C85G U90A G94U U104C U148C,≤ -4.2
10,U31C A60C U61A A66G C87U U90G C105A,≤ -4.2
11,A30C G67C G68A G88A C93A U135C G141C,≤ -4.2
12,A30U C35U G141U,≤ -4.2
13,A30U A60C G62A C76A C96G U127G G143C,≤ -4.2
14,C32G G50A G94U U134A,≤ -4.2
15,U31A C51U A73G C95G,-3.09
16,A30U C32G C54U C96G U146A,≤ -4.2
17,A30C C93U C108A G128C,≤ -4.2
18,A30U A52G U53A U146G,≤ -4.2
19,C32G A40U C57U U135G,≤ -4.2
20,A29U U45G G86C U148A,≤ -4.2
21,C32G C51U U53A G94A U101A A122G,≤ -4.2

row,Variant,polymerase ribozyme fitness (log ratio)
1,A30U A41U G67C C96U C118G U135C,≤ -4.2
2,U31G A41U G48U G67A A97C C103G,≤ -4.2
3,U31A A66C C85A A106U G128A,≤ -4.2
4,C32G A40U G86C A113U G143A,≤ -4.2
5,C32A U82C,≤ -4.2
6,C32G A60C C76U C79G C87U U135C,≤ -4.2
7,A30G G42U A52C C57A C96A A120G,≤ -4.2
8,A29U U44G G141C,≤ -4.2
9,A30U A40G G50C G67A C76A C85U A89C C132U,≤ -4.2
10,U31C C85A C96G C103A,≤ -4.2
11,U31G C76U G92U C103A,≤ -4.2
12,A30U C57G C79G C85G U101G C108G A138C,≤ -4.2
13,C32A C35U C69A C75U A150G,≤ -4.2
14,C32G C36G A91C U101C A107C,≤ -4.2
15,A30G C54G A121U U139A U145C,≤ -4.2
16,A29U U61A G67U G68A G83U,≤ -4.2
17,A30U A64C U146C,≤ -4.2
18,C32G C87U A107U A113C C116A,≤ -4.2
19,U31A A41C U61A G128U A138U,≤ -4.2
20,U31A A49C U53A C76G G81A G92A A106G G117A,≤ -4.2
21,A30C U31C C32A G46C G50C G58U G88C U104C A122G,≤ -4.2

row,Variant,polymerase ribozyme fitness (log ratio)
1,U31A A49U A60G G83U U102G A115U,≤ -4.2
2,U31A G42U G48A C54U C69A A142U U145A,≤ -4.2
3,U31A A52C A91U,-4.06
4,A30C G46A,≤ -4.2
5,U31C A60U A110G C118G U144C,-3.59
6,A30G G62C A66U C105G U134C,≤ -4.2
7,A29U G92A A142C,≤ -4.2
8,C32A G83A G88C C116G G140C,-4.04
9,U31C G81U C93G A113U G126A,≤ -4.2
10,A30C U31C G59A C93U A106U,≤ -4.2
11,U31C A37G C99A A115U A120G G133U,≤ -4.2
12,U31A G83C C105U U127G G133A A137C,≤ -4.2
13,A30U C72A C87U C95A U102A C114U G140U,≤ -4.2
14,A30U A39G A47C U55G U134G,≤ -4.2
15,A30G U139C G141A G143U,≤ -4.2
16,U31A U33G A47G U53A G83U G126A A150U,≤ -4.2
17,A30U C51U G94U A107U G133U,≤ -4.2
18,A30U C79U G83C,≤ -4.2
19,A30G A91U A137G G141U,≤ -4.2
20,A30C G42U C54U C63G G68A C93U A121G U145A,≤ -4.2

# — the RNAGym collection of RNA variant scans (doi:10.1073/pnas.2313332121)
